Experimental data as given in PubChem BioAssay (NCI).
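All cell lines were grown in 96-well plates and treated with compound for 48 hours. The concentration for 50% growth inhibition is given as GI50. TGI is the concentration that stops growth completely.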

What follows are compounds tested on NCI-H322M lung (assay: inhibition of tumour cell growth, NCI panel, 48 h).

In order of rising GI50:
1. CCC(C)[C@H]1OC(=O)[C@H](C(C)C)N(C)C(=O)[C@@H](C(C)C)OC(=O)[C@H](C(C)C)N(C)C(=O)[C@@H](C(C)CC)OC(=O)[C@H](C(C)C)N(C)C1=O (stereo not given in full)  0.541 µM
2. CCn1c2ccc(/C=N/OCCCN(C)C)cc2c2cc(/C=N/OCCCN(C)C)ccc21  2.59 µM
3. CC1=C2C(=O)[C@](C)(CO)C=C2C(=O)[C@](C)(O)C12CC2  2.82 µM
4. CNC(=O)c1cc(-n2ccc3cc(NC(=O)Nc4ccc(N5CCOCC5)c(C(F)(F)F)c4)ccc32)ccn1  8.16 µM
5. C=C(C)C(=O)O[C@H]1C[C@@]2(C)OC(=CC2=O)/C(C)=C\[C@H]2OC(=O)C(=C)[C@H]12  12.8 µM

First: CC1=C2C(=O)[C@](C)(CO)C=C2C(=O)[C@](C)(O)C12CC2
Second: C=C(C)C(=O)O[C@H]1C[C@@]2(C)OC(=CC2=O)/C(C)=C\[C@H]2OC(=O)C(=C)[C@H]12
The TGI of the first is lower: 10.6 µM for the first, over 33.2 µM for the second.

Going from `CNC(=O)c1cc(-n2ccc3cc(NC(=O)Nc4ccc(N5CCOCC5)c(C(F)(F)F)c4)ccc32)ccn1` to `CCn1c2ccc(/C=N/OCCCN(C)C)cc2c2cc(/C=N/OCCCN(C)C)ccc21`, the TGI falls from over 33.3 µM to 9.57 µM.

With `CCC(C)[C@H]1OC(=O)[C@H](C(C)C)N(C)C(=O)[C@@H](C(C)C)OC(=O)[C@H](C(C)C)N(C)C(=O)[C@@H](C(C)CC)OC(=O)[C@H](C(C)C)N(C)C1=O` (stereo not given in full) the TGI was 3.52 µM.
